# The supplement of paper PMC8728848
# The list shows a part of the results.
# B1: Epa1-NP-mutant-E227A (Candida glabrata), Q6VBJ0 (protein)
# chain: MILNPALFLNKCVCIYTTLILLLLTNGGYATSSNDISLASKDPTTFPLGCSPDITTPKKGLSMELYSYDFRKKGSYPCWDAAYLDPNYPRTGYKSHRLLAKVDGVTGNINFYYHATKGCTPQLGHLPASYNYPKPLTMTNFTMLLYGYFRPKVTGFHTFTISADDLLFVNFGAGNAFDCCRRDSSADHFGNYQAYAIWGSKTAKDELTVHLDAGVYYPIRLFYNNRAYDGALSFTFKTESNENTVSDFSEYFFSLDDTEEGCPGLISYDSSCASVKTSKIIGIDYHTETPNENLVPITKTIYHLGIPCTGTTTTPLCGSGFYDPLANKCVTINTSSTSSVTKTTSHTTSKEVSFHSSISSQKTLIPKSIPSPYGPIKSQSIPTEMETSSEISSSEYAFSDVISTPSHSPYTKKHSSLNSSSYTSTVIHSLTSYSISQGIFSTSLSEQNITSKSSTDKFSTATSMSNNITQSSIIISQFSTNNENYTTTSMHTSSDKISTETLNNSISTTTSILFSNSSTILKNNTTIISSDKDTHYHPVNPTIVCSTNKTEIICASITQPSISNSNNHWSSSVLKFNSTTVRSTLPSSAGSNETSINVPFSSSTESNTSTSSTSTSNSKMVRSTLPSSAGSNETSISVPFSSSTESNTSTSSTSTSNSKMVRSTLPSSAGSNETSINVPFSSSTESNTSTSSTSTSNSKTVRSTPFSSAGIIMTSLSQRNNKSASSYASSNSKCYNTADSCRKVHSTPSYLLTSSYTSEGVDYDCSLVSTKLKINDTNCVNNKHTTKSCLKTSVTTTIPTLEIKTARKSSSNTIGLHSYPTSSPNKSISSAPIIGYISSFKTIKTASPSYQTSDLTTITTITSLNNPGSTAVENTHESNDKSRKTSSNDISSKHSVIKETKDAVESSNKSHQTNTLKCSSIIIASSSHNSYESLGGTTLTLTLSKVYSPQNNDTLPFLEISEVNPSRTVLPESSKMMQYLTSTEERNKTARNTIATNIVSISTFHFEGEGNAIRMGYTQLLLMLIGIIVMNIGT
# What was measured:
# Experiment in all cases: glycan array binding signal (z-score within array); higher = stronger binding
# Conditions in all cases: glycan notation: IUPAC condensed, linker removed; mutation: E227A
# [1] = target: Gal(b1-3)GlcNAc(b1-2)Man(a1-3)[Gal(b1-3)GlcNAc(b1-2)Man(a1-6)]Man(b1-4)GlcNAc(b1-4)GlcNAc
# Summary of the method: (§1)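 Glycan array data were curated from 3228 arrays in the Consortium for Functional Glycomics database and kept only where the protein sequence was available. Glycan names were converted to IUPAC-condensed notation, and columns mapping to the same glycan were averaged. The binding signal is a within-array Z-score, averaged across arrays of the same protein sequence at different concentrations or buffers and across linkers. Negative Z-scores can be read as non-binding.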
# [2] = target: Gal(b1-3)GlcNAc(b1-2)Man(a1-3)[Gal(b1-3)GlcNAc(b1-2)Man(a1-6)]Man(b1-4)GlcNAc(b1-4)[Fuc(a1-6)]GlcNAc
# Summary of the method: as §1
# [3] = target: Gal(b1-3)GlcNAc(b1-2)Man(a1-3)[GlcNAc(b1-4)][Gal(b1-3)GlcNAc(b1-2)Man(a1-6)]Man(b1-4)GlcNAc(b1-4)GlcNAc
# Summary of the method: as §1
# [4] = target: Gal(b1-3)GlcNAc(b1-2)[Gal(b1-3)GlcNAc(b1-6)]Man(a1-6)[Gal(b1-3)GlcNAc(b1-2)Man(a1-3)]Man(b1-4)GlcNAc(b1-4)GlcNAc
# Summary of the method: as §1
# [5] = target: Gal(b1-3)GlcNAc(b1-3)Gal(b1-3)GlcNAc
# Summary of the method: as §1
# [6] = target: Gal(b1-3)GlcNAc(b1-3)Gal(b1-4)Glc
# Summary of the method: as §1
# [7] = target: Gal(b1-3)GlcNAc(b1-3)Gal(b1-4)GlcNAc
# Summary of the method: as §1
# [8] = target: Gal(b1-3)GlcNAc(b1-3)Gal(b1-4)GlcNAc(b1-2)Man(a1-3)[Gal(b1-3)GlcNAc(b1-3)Gal(b1-4)GlcNAc(b1-2)Man(a1-6)]Man(b1-4)GlcNAc(b1-4)GlcNAc
# Summary of the method: as §1
# [9] = target: Gal(b1-3)GlcNAc(b1-3)Gal(b1-4)GlcNAc(b1-2)[Gal(b1-3)GlcNAc(b1-3)Gal(b1-4)GlcNAc(b1-6)]Man(a1-6)[Gal(b1-3)GlcNAc(b1-3)Gal(b1-4)GlcNAc(b1-2)Man(a1-3)]Man(b1-4)GlcNAc(b1-4)[Fuc(a1-6)]GlcNAc
# Summary of the method: as §1
# [10] = target: Gal(b1-3)GlcNAc(b1-3)Gal(b1-4)GlcNAc(b1-3)Gal(b1-4)GlcNAc(b1-2)[Gal(b1-3)GlcNAc(b1-3)Gal(b1-4)GlcNAc(b1-3)Gal(b1-4)GlcNAc(b1-6)]Man(a1-6)[Gal(b1-3)GlcNAc(b1-3)Gal(b1-4)GlcNAc(b1-3)Gal(b1-4)GlcNAc(b1-2)Man(a1-3)]Man(b1-4)GlcNAc(b1-4)[Fuc(a1-6)]GlcNAc
# Summary of the method: as §1
# [11] = target: Gal(b1-3)GlcNAc(b1-3)Gal(b1-4)GlcNAc(b1-6)[Gal(b1-3)GlcNAc(b1-3)]Gal(b1-4)Glc
# Summary of the method: as §1
# [12] = target: Gal(b1-3)GlcNAc(b1-3)Gal(b1-4)[Fuc(a1-3)]GlcNAc
# Summary of the method: as §1
# [13] = target: Gal(b1-3)GlcNAc(b1-3)Gal(b1-4)[Fuc(a1-3)]GlcNAc(b1-6)[Gal(b1-3)GlcNAc(b1-3)]Gal(b1-4)Glc
# Summary of the method: as §1
# [14] = target: Gal(b1-3)GlcNAc(b1-3)GalNAc
# Summary of the method: as §1
# [15] = target: Gal(b1-3)GlcNAc(b1-6)Gal(b1-4)GlcNAc
# Summary of the method: as §1
# [16] = target: Gal(b1-3)GlcNAc(b1-6)GalNAc
# Summary of the method: as §1
# [17] = target: Gal(b1-3)GlcNAc(b1-6)[Gal(b1-3)]GalNAc
# Summary of the method: as §1
# Gal(b1-3)GlcNAc6S = target: Gal(b1-3)GlcNAc6S
# Summary of the method: as §1
# [18] = target: Gal(b1-3)[Fuc(a1-4)]GlcNAc
# Summary of the method: as §1
# [19] = target: Gal(b1-3)[Fuc(a1-4)]GlcNAc(b1-2)Man
# Summary of the method: as §1
# [20] = target: Gal(b1-3)[Fuc(a1-4)]GlcNAc(b1-2)Man(a1-3)[Gal(b1-3)[Fuc(a1-4)]GlcNAc(b1-2)Man(a1-6)]Man(b1-4)GlcNAc(b1-4)[Fuc(a1-6)]GlcNAc
# Summary of the method: as §1
# [21] = target: Gal(b1-3)[Fuc(a1-4)]GlcNAc(b1-3)Gal(b1-3)[Fuc(a1-4)]GlcNAc
# Summary of the method: as §1
# [22] = target: Gal(b1-3)[Fuc(a1-4)]GlcNAc(b1-3)Gal(b1-4)[Fuc(a1-3)]GlcNAc
# Summary of the method: as §1
# [23] = target: Gal(b1-3)[Fuc(a1-4)]GlcNAc(b1-6)GalNAc
# Summary of the method: as §1
# [24] = target: Gal(b1-3)[GlcNAc(b1-6)]GalNAc
# Summary of the method: as §1
# [25] = target: Gal(b1-3)[Neu5Ac(a2-6)]GalNAc
# Summary of the method: as §1
# [26] = target: Gal(b1-3)[Neu5Ac(a2-6)]GlcNAc(b1-4)Gal(b1-4)Glc
# Summary of the method: as §1
# [27] = target: Gal(b1-3)[Neu5Ac(b2-6)]GalNAc
# Summary of the method: as §1
# Gal(b1-4)Gal = target: Gal(b1-4)Gal
# Summary of the method: as §1
# [28] = target: Gal(b1-4)GalNAc(a1-3)[Fuc(a1-2)]Gal(b1-4)GlcNAc
# Summary of the method: as §1
binder,measurement,setting,value
B1,glycan array binding signal (z-score),[1],0.473
same,glycan array binding signal (z-score),[2],0.191
same,glycan array binding signal (z-score),[3],1.09
same,glycan array binding signal (z-score),[4],-0.012
same,glycan array binding signal (z-score),[5],0.187
same,glycan array binding signal (z-score),[6],-0.047
same,glycan array binding signal (z-score),[7],-0.022
same,glycan array binding signal (z-score),[8],-0.161
same,glycan array binding signal (z-score),[9],0.042
same,glycan array binding signal (z-score),[10],0.433
same,glycan array binding signal (z-score),[11],0.789
same,glycan array binding signal (z-score),[12],-0.109
same,glycan array binding signal (z-score),[13],0.52
same,glycan array binding signal (z-score),[14],-0.132
same,glycan array binding signal (z-score),[15],7.88
same,glycan array binding signal (z-score),[16],-0.168
same,glycan array binding signal (z-score),[17],0.964
same,glycan array binding signal (z-score),Gal(b1-3)GlcNAc6S,1.37
same,glycan array binding signal (z-score),[18],-0.197
same,glycan array binding signal (z-score),[19],-0.171
same,glycan array binding signal (z-score),[20],-0.175
same,glycan array binding signal (z-score),[21],-0.191
same,glycan array binding signal (z-score),[22],-0.207
same,glycan array binding signal (z-score),[23],-0.137
same,glycan array binding signal (z-score),[24],0.982
same,glycan array binding signal (z-score),[25],0.744
same,glycan array binding signal (z-score),[26],-0.133
same,glycan array binding signal (z-score),[27],-0.062
same,glycan array binding signal (z-score),Gal(b1-4)Gal,-0.16
same,glycan array binding signal (z-score),[28],0.533
